Measurements as given in publication PMC4336329 (PLoS ONE, 2015).
In all, about 310,000 compounds went through this assay and about 2,200 (0.71%) showed an effect of 50% or more. Effects have a minus sign here. Some of the results follow.

Biological target: human ether-à-go-go-related gene (hERG) potassium channel (human, UniProt Q12809)
Test: primary screen, population patch clamp on CHO cells stably expressing hERG

human ether-à-go-go-related gene (hERG) potassium channel, sequence (Q12809 whole entry, looked up): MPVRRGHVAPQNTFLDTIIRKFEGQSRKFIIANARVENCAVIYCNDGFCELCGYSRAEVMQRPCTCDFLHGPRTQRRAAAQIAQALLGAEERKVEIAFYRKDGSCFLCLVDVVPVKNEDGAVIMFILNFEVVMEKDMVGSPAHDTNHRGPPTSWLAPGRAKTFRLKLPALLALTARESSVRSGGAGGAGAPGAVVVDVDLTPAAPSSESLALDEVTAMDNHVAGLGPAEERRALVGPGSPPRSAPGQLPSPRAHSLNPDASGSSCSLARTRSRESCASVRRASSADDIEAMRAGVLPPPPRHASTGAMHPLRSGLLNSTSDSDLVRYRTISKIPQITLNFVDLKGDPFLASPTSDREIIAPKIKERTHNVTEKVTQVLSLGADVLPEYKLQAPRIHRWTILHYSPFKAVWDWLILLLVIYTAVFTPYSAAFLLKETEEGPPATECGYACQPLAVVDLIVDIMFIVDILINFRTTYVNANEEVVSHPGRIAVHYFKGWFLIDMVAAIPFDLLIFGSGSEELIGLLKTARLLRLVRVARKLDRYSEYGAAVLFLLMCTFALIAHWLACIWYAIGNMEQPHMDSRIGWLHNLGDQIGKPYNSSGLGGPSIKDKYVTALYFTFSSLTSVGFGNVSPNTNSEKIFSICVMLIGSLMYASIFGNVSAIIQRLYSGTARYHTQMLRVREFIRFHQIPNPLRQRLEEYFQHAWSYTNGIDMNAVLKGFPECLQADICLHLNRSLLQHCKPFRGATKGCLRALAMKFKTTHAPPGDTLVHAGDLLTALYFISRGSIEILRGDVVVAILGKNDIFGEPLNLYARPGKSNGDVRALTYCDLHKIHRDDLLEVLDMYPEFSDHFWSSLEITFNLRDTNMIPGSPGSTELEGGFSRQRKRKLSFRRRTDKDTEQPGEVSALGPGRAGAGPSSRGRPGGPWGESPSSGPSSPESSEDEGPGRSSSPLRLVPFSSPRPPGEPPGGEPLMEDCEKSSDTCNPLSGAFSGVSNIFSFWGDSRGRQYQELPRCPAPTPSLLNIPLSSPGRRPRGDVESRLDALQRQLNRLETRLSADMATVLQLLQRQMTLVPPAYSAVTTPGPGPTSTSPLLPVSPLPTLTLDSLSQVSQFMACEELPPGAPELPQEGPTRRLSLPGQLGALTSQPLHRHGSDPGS

Row | SMILES | hERG current change (%, negative = inhibition) at 1uM [%]
1 | Cc1ccc(OCc2cc(C(=O)N(C)CC3CCOCC3)no2)cc1C | -0.274
2 | COc1cc2c(N3CCOCC3)cc(O)c(CC(=O)Nc3ccccc3)c2cc1OC | 15.2
3 | Cc1ccc(C)c(NC(=O)CN2C(=O)NC(C)(c3ccc4c(c3)OCCO4)C2=O)c1 (stereo not drawn) | 8.8
4 | COc1cc(CNc2ncn[nH]2)ccc1OCc1ccccc1C | 7.95
5 | Cc1nc2ccc(NC(=O)c3cccc(C(F)(F)F)c3)cc2o1 | 1.84
6 | O=C(CN1C(=O)CCC1=O)Nc1ccc(Br)cc1 | 4
7 | Cc1cc(C(=O)NCc2cccs2)ccc1[N+](=O)[O-] | -0.699
8 | C=Cn1cc[n+](CC(=O)c2cc(C(C)(C)C)c(O)c(C(C)(C)C)c2)c1.[Br-] | 18
9 | Cc1ccc(C)c(N(C(=O)Cn2nnc(-c3cccs3)n2)C(C(=O)NC2CC2)c2ccc(C)o2)c1 (stereo not drawn) | 1.75
10 | Cc1nc2c3ccccc3nc(SCC(=O)N3CC(C)CC(C)C3)n2n1 (stereo not drawn) | 0.521
11 | Cc1c(C=O)c2ccccn2c1C(=O)c1cccc([N+](=O)[O-])c1 | 10.2
12 | O=c1[nH]c(=S)[nH]c2[nH]c(=S)[nH]c12 | 14.2
13 | O=C(CSc1nc(O)c(C2CCCCC2)c(=O)[nH]1)Nc1ccc(F)cc1 | 16
14 | COc1ccc(CNC(=O)c2ccc(NC(=O)CC3SC(N4CCCCC4)=NC3=O)cc2)cc1 (stereo not drawn) | 8.15
15 | CN(C)/C=C/C(=O)c1cnc(-c2ccc(Cl)cc2)s1 | 0.981
16 | CCc1nnc(NC(=O)CSc2nnc(COc3cccc(C)c3)o2)s1 | 14.9
17 | O=C(NNC(=O)C1CC(=O)N(Cc2ccccc2)C1)c1ccc(Br)cc1 (stereo not drawn) | 5.96
18 | O=C(CSc1nnc(Cc2ccccc2)o1)c1ccccc1 | 7.87
19 | Cc1nc2ccccc2c(=O)n1-c1cccc(NS(=O)(=O)c2ccccc2)c1 | -5.49

Row | SMILES | hERG current change (%, negative = inhibition) at 1uM [%]
20 | CCNC(=S)/N=C(/Nc1ccccc1)Nc1nc(C)cc(C)n1 | 10.4
21 | Cc1nc(NS(=O)(=O)c2ccc(Br)cc2)c2c3c(sc2n1)CCC3 | 4.79
22 | CCN(CC)CCN1C(=O)C(O)=C(C(=O)c2sc(C)nc2C)C1c1cccnc1 (stereo not drawn) | 14.2
23 | CC(=O)c1ccc(OC(=O)C2CSC3(C)CCC(=O)N23)cc1 (stereo not drawn) | 10.3
24 | C#CCNC(=O)C1=C[C@H](c2cn(C(C)=O)c3ccccc23)[C@@H](CCCO)[C@H](OCC)O1 | -3.26
25 | O=C(NCc1cccc(Cl)c1)NCc1cccc(Cl)c1 | -7.94
26 | Cc1ccc(NC(=O)NC(=O)COc2ccccc2C(N)=O)c(C)c1 | 9.35
27 | Nc1ccccc1CNc1nc(NCCO)nc2c1ncn2CCN1CCOCC1 | 4.54
28 | Cc1cc2nc(CCN(Cc3cccnc3)C(=S)Nc3ccc(F)cc3)[nH]c2cc1C | 12.4
29 | NS(=O)(=O)c1ccc(CCNC(=O)c2cc(-c3ccccc3)nc3ccccc23)cc1 | -1.32
30 | CCOC(=O)c1c(NCC(C)C)c2ccccc2[nH]c1=O | 5.78
31 | CC(C)C(=O)Nc1ccc(N2CCCC2)c(Cl)c1 | 20.2
32 | CCOC(=O)CN(c1cccc(C(C)=O)c1)S(C)(=O)=O | 5.94
33 | CCN(CC)CC.O=C1NC(=S)S/C1=C1\Sc2ccccc2N1CCCS(=O)(=O)O | 16.4
34 | CC1CCCC(C)N1CC(O)COc1ccc(Cl)cc1 (stereo not drawn) | -57.6
35 | CCCCCCCC1=CC2=CC(=O)C(C)(OC(C)=O)C(=O)C2=CN1CCc1ccccc1 (stereo not drawn) | -2.78
36 | Cc1ccc(SCCSc2nc(N)cc(=O)[nH]2)cc1 | 12.8
37 | CCn1c(CSc2ncccn2)nnc1SCC(=O)N1c2ccccc2CC1C (stereo not drawn) | 4.13
38 | CC(OC(=O)c1cc2c(s1)CCCCC2)C(=O)NC(N)=O (stereo not drawn) | -1.42

Row | SMILES | hERG current change (%, negative = inhibition) at 1uM [%]
39 | CC(C)c1cc(C(=O)Nc2cccc(C(F)(F)F)c2)no1 | 14
40 | CCOC(=O)c1sc(=S)n(CC)c1NC(=O)CC | 11.2
41 | COC(=O)c1cc(C(=O)Nc2nnc(CC(C)C)s2)cc([N+](=O)[O-])c1 | 2.11
42 | Cc1nn(C)c(C)c1S(=O)(=O)N1CCC(C(=O)NC(C)c2ccccc2)CC1 (stereo not drawn) | 14
43 | CCOC(=O)C1CCN(C(=O)c2ccc3c(c2)NC(=O)/C(=C/c2ccccc2)S3)CC1 | 11.9
44 | CCOc1ccc(-c2nc(C#N)c(NC3CC3)o2)cc1 | 10.8
45 | O=C(Cn1nc(-c2cccs2)ccc1=O)Nc1ccc(Br)cc1 | -6.2
46 | CC(=O)Nc1ccc(S(=O)(=O)N2CCC(NC(=O)c3ccccc3)CC2)cc1 | 14.6
47 | Cn1c(SCC(=O)Nc2ccc3cn[nH]c3c2)nnc1-c1cccs1 | -5.92
48 | CC(=O)Nc1ccc(NS(=O)(=O)c2cn(C)c(=O)n(C)c2=O)cc1 | 6.39
49 | CC1=CC(c2ccccc2)n2nc(NS(=O)(=O)c3ccc(C)cc3)nc2N1 (stereo not drawn) | -2.76
50 | CCOc1ccc(NC(=O)CN2C(=O)C(C)SC(C)C2=O)cc1 (stereo not drawn) | 3.37
51 | COc1ccc2c(c1O)-c1c(OC)c(OC)cc3c1[C@H](C2)N(C)CC3 | -2.13
52 | Cc1ccc(CN(C(=O)c2ccccc2C)C2CCS(=O)(=O)C2)o1 (stereo not drawn) | -7.14
53 | COCCN1CC(C(=O)N2CCC(Oc3ccccc3OC)CC2)CCC1=O (stereo not drawn) | -5.44
54 | O=C(OCc1nnc(-c2ccc(Cl)cc2)o1)c1ccc(=O)n(Cc2ccccc2)n1 | 5.81
55 | O=C(O)c1cc(N/N=C/c2ccc(N3CCOCC3)cc2)ccc1Cl | 3.86
56 | O=C1Nc2ccc(F)cc2C12OCCO2 | 16.7
57 | Cc1cc(-c2ccccc2)c2ccc(NC(=O)C(C)(C)C)nc2n1 | 11.7
